Laboratory results taken from PubChem BioAssay AID1347165 (National Center for Advancing Translational Sciences (NCATS), 2019).
Values joined by “and” are separate entries in the source; they are usually repeats but may differ in a detail not shown here. Equal entries are not always repeated. The whole screen tested about 220,000 compounds, of which about 5,700 (2.6%) were called active. The shares of active, inactive and inconclusive entries below differ from those in the screen. The call rests on the fitted dose curve; in most records, active means well fitted inhibition curve with a large enough effect; inconclusive means small, poorly fitted or top-dose-only effect; inactive means no such curve, though single readings can be large or run the other way. Potencies beside an inconclusive call are fits to weak or partial responses and may not hold up.

What follows are compounds tested against Lysine-specific demethylase 5B (Homo sapiens) (UniProt Q9UGL1) (assay: Primary screen for KDM5B Histone Demethylases FDH-coupled qHTS). Conditions: FDH-coupled NADH fluorescence (FDH is formaldehyde dehydrogenase); series mostly up to 57.7 µM.
Procedure, shortened: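 Measured: NADH fluorescence change, 30 min, RT. System: KDM5BΔAP 200 nM final, H3K4me3 peptide, α-KG, Fe(II), ascorbate, NAD⁺ plus FDH, pH 7.5 HEPES. Compounds: titrated, 10 min pre-incubation with enzyme.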
Further: nearly all actives have a fitted effect of over 70% in size.
Potency means the concentration at half of the fitted maximal effect; tags describe the fitted curve by direction and shape.

Sequence of UniProt Q9UGL1 (Q9UGL1 whole entry, looked up): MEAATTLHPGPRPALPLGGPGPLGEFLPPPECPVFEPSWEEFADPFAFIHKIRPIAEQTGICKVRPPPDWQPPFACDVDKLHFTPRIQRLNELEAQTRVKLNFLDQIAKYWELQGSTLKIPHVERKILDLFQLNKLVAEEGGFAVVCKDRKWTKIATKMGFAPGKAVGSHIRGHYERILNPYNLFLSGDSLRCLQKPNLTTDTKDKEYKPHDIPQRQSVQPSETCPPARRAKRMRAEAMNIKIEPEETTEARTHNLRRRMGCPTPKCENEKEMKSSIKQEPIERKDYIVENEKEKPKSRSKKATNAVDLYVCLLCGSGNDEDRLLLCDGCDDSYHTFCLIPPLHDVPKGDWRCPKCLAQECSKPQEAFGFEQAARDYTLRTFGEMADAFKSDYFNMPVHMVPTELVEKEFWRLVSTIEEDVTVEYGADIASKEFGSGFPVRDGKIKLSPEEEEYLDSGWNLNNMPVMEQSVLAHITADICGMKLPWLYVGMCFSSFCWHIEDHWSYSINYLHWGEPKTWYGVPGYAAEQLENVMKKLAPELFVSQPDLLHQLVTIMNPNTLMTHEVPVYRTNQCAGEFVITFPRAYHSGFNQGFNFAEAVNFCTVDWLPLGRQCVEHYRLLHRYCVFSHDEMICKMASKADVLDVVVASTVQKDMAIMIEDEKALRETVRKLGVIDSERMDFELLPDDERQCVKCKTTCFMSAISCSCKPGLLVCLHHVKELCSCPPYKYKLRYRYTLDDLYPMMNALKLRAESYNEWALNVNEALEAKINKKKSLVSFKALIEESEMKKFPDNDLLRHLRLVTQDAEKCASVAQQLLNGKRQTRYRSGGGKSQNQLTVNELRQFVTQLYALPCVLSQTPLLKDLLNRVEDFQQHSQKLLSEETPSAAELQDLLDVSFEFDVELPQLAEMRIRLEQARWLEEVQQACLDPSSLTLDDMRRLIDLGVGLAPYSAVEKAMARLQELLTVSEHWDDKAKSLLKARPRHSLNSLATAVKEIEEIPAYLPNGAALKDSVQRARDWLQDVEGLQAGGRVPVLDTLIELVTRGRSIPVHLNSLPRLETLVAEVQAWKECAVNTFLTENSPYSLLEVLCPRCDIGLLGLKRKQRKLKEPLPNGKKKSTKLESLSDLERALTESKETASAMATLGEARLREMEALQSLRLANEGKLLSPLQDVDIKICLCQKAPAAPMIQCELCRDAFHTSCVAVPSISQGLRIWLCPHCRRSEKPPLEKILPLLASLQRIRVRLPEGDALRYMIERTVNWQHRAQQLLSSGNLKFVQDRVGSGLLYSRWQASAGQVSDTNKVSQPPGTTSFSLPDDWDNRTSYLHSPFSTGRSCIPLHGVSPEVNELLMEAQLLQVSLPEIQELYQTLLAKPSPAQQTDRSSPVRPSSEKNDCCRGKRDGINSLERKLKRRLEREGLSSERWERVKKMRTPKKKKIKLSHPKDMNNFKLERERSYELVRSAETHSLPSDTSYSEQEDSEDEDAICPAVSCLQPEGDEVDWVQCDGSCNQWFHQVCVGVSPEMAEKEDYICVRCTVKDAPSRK

SMILES | Potency
O=C(O)C1=NOC2CN(Cc3ccc(F)cc3)CC12 (stereo not given) | inconclusive: 39.8 µM [inhibitor, partial curve, poor fit]
COC(=O)/C(=C/c1cccc([N+](=O)[O-])c1)C(C)=O | inconclusive: 31.6 µM [inhibitor, partial curve, poor fit]
Cc1ccc(NS(=O)(=O)c2ccc3[nH]c4c(c3c2)CCCC4)cc1N(C)C | inconclusive: 15.8 µM [inhibitor, partial curve, poor fit]
COCC1CN(Cc2cc(Br)ccc2OC)CC12CCNCC2 (stereo not given) | inconclusive: 31.6 µM [inhibitor, partial curve, poor fit]
O=C(CCc1cc2n(n1)CCNC2)NCc1nc2ccc(Cl)cc2[nH]1 | inconclusive: 17.8 µM [inhibitor, single point]
Cc1ccc(CCNS(=O)(=O)c2c(C)nc3sc(C)c(C)n3c2=O)cc1 | inconclusive: 2.82 µM [inhibitor, full curve, poor fit]
Cc1ccc(C(=O)Nc2cccc3ncccc23)cc1 | inactive
O=C(Cc1ccsc1)N1CCCC1c1nc(C2CCOCC2)no1 (stereo not given) | inconclusive: 31.6 µM [inhibitor, partial curve, poor fit]
CCNC(=O)c1cccnc1OC1CCN(C(=O)c2ccccc2)C1 (stereo not given) | inactive
CCOc1ccc(CC(=O)Nc2cccn3nc(C)nc23)cc1 | inconclusive: 12.6 µM [inhibitor, partial curve]
Cc1ccc(CNC(=O)c2ccc(CSCc3cccc(C)c3)o2)cc1 | inconclusive: 2.51 µM [inhibitor, partial curve, poor fit] and inconclusive: 25.1 µM [inhibitor, partial curve, poor fit]
C=CCOc1cccc(-c2nc(C(=O)Nc3ccc(F)cc3)cs2)c1 | inconclusive: 22.4 µM [inhibitor, single point]
CCc1ccc(-c2csc(Nc3ccc(C(=O)O)c(O)c3)n2)cc1 | inactive
CCc1noc(-c2cn(C3CCCN(C(=O)c4cc(Cl)ccc4F)C3)nn2)n1 (stereo not given) | inactive
O=S(=O)(Cc1ccccc1)N1CCN(Cc2ccc(Br)cc2)CC1 | inconclusive: 22.4 µM [inhibitor, single point]
COc1ccccc1-c1nnc([C@H]2CCN(C(C)=O)C2)o1 | inconclusive: 56.2 µM [inhibitor, single point]
CC1(c2ccccc2)CC(C)(C)N(C(=O)c2cccc(Cl)c2)c2ccccc21 (stereo not given) | inconclusive: 35.5 µM [inhibitor, single point]
O=C(Nc1ncc([N+](=O)[O-])s1)c1ccc2c(c1)OCO2 | inconclusive: 15.8 µM [inhibitor, partial curve, poor fit]
COCc1nnc(NC(=O)c2cccc3c2ccn3C)s1 | inconclusive: 28.2 µM [inhibitor, partial curve, poor fit]
CCC[C@H]1CN(Cc2ccccc2C#N)C[C@@H]1NS(C)(=O)=O | inconclusive: 6.31 µM [inhibitor, partial curve]
CCC(C)N1CCN(C(=O)CCc2ccc3c(c2)CN(C(=O)C2CC2)CCO3)CC1 (stereo not given) | inconclusive: 17.8 µM [inhibitor, partial curve]
O=C(Cc1ccc(F)cc1)NCCc1c[nH]c2ccccc12 | inactive

SMILES | Potency
CCn1c(C)c(C)c2cc(C(=O)NCc3ccc(F)cc3)ccc21 | inconclusive: 22.4 µM [inhibitor, single point]
Cc1sc(C=O)cc1CN1CCOCC1 | inactive
COc1ccccc1CN1CCNc2cnc(-c3ccccc3)cc2C1 | inconclusive: 35.5 µM [inhibitor, partial curve, poor fit]
C#CC(C)(C)NS(=O)(=O)c1cccc2nsnc12 | inactive
Fc1ccc(-c2nc(CSc3ccc4c(c3)OCCO4)cs2)cc1 | inactive
NS(=O)(=O)c1ccc(CCNc2ncnc3c2cnn3-c2ccc(F)cc2)cc1 | inconclusive: 31.6 µM [inhibitor, partial curve, poor fit]
CCOC(=O)c1ccc2c(c1)N(Cc1ccc(F)cc1Cl)C(=O)c1ccccc1S2(=O)=O | inconclusive: 1.12 µM [inhibitor, full curve, poor fit]
Cc1cc(C)cc(NC(=O)c2ccc3c(c2)N(C)C2CCCCN2C3=O)c1 (stereo not given) | inconclusive: 35.5 µM [inhibitor, partial curve, poor fit]
O=C(NCCN1CCC(Cc2ccccc2)CC1)C1(CCO)CC12CCOCC2 (stereo not given) | inactive
Cc1cc(C(=O)N2CCC3(CC2)CC(CC(=O)NCc2ccccc2)CCO3)n[nH]1 (stereo not given) | inactive
O=C(Nc1ccccc1)Nc1ccc(=O)n2c1[C@@H]1C[C@@H](CN(C(=O)COc3ccccc3)C1)C2 | inactive
CC(C)Cc1ccc(S(=O)(=O)N2CCN(Cc3noc(CCC(=O)N4CCCCC4)n3)CC2)cc1 | inconclusive: 31.6 µM [inhibitor, partial curve, poor fit]
CCCCCCOc1ccc(C=O)cc1 | inconclusive: 28.2 µM [inhibitor, single point]
O=C(c1cnc(-c2cccs2)nc1)N1CCN(CCO)CC(O)C1 (stereo not given) | inconclusive: 22.4 µM [inhibitor, single point]
CCOc1ccc2c(n1)CCN(C(=O)c1ccccc1C)C2 | inconclusive: 20 µM [inhibitor, partial curve, poor fit]
Cc1ccc([S+](=O)([O-])NC2CCN(c3nc4ncccc4o3)CC2)cc1 | inconclusive: 28.2 µM [inhibitor, single point]
COC(=O)C(NC(=O)CCc1c(C)nc2c(-c3ccccc3)c(C)nn2c1C)C(C)C (stereo not given) | inconclusive: 12.6 µM [inhibitor, partial curve, poor fit]
COc1cccc(C2C3=C(COC3=O)Nc3c2c(=O)n(C)c(=O)n3C)c1OC (stereo not given) | inconclusive: 28.2 µM [inhibitor, partial curve, poor fit]
Cc1nn(C)c2nc(-c3ccccn3)nc(N3CCC4(CC3)COC(=O)O4)c12 | inconclusive: 28.2 µM [inhibitor, single point]
CCC1CCCCN1C(=O)Cn1cccc1-c1nc(-c2ccc(C)cc2)no1 (stereo not given) | inconclusive: 39.8 µM [inhibitor, single point]
Cn1nc(C(=O)NC2CCCc3c2[nH]c2ccccc32)c2ccccc2c1=O (stereo not given) | active: 25.1 µM
COc1ccc(C)cc1NC(=O)NC(C)c1c(-n2cccc2)sc(C)c1C (stereo not given) | inconclusive: 2 µM [inhibitor, partial curve, poor fit]

SMILES | Potency
CCN(CC)CCCNc1sc(S(=O)(=O)c2ccccc2)nc1S(=O)(=O)c1ccc(Cl)cc1 | inconclusive: 31.6 µM [inhibitor, partial curve, poor fit]
CO[C@H]1C(=O)N(C(C)C)[C@H]1C1CCN(Cc2ccc(C)s2)CC1 | inconclusive: 39.8 µM [inhibitor, single point]
O=C1CCCN1CC1CCN(C(=O)c2ccc(N3CCC(O)CC3)nc2)CC1 | inconclusive: 17.8 µM [inhibitor, partial curve, poor fit]
CC(=O)Nc1ccc(NC2=C(C(N)=O)S(=O)(=O)c3ccccc32)cc1 | inconclusive: 39.8 µM [inhibitor, single point]
COn1c(-c2ccc(Cl)cc2)nc2ncccc21 | inconclusive: 17.8 µM [inhibitor, partial curve, poor fit]
Fc1ccc(Nc2ncnc3onc(-c4ccc(Cl)cc4)c23)cc1Cl | inconclusive: 39.8 µM [inhibitor, partial curve, poor fit]
CCOc1ccc(NC(C)=O)c(N)c1 | inactive
CCOc1ccc(CCNC(=O)c2ccc3c(c2)N(Cc2ccc(C)cc2)CCS3)cc1 | inconclusive: 35.5 µM [inhibitor, partial curve, poor fit]
CC(=O)N1CCN(Cc2csc(-c3ccc(C(F)(F)F)cc3)n2)CC1 | inactive
COc1ccc(C(=O)N2CCC3(CC2)NCCc2c3[nH]c3ccccc23)c(OC)c1 | inactive
Cc1cc(F)ccc1NS(=O)(=O)c1c(C)nc2scc(C)n2c1=O | inconclusive: 31.6 µM [inhibitor, partial curve, poor fit]
CCc1cccc(C)c1NC(=O)CSc1nc2ccccc2nc1N1CCOCC1 | inconclusive: 35.5 µM [inhibitor, single point]
Cn1ccc2c(C(=O)N[C@H](c3cccs3)C3CC(O)C3)cccc21 (stereo not given in full) | inactive
CCOc1ccccc1C(=O)N[C@@H]1CN(c2ncccn2)C[C@H]1CO | active: 22.4 µM
COc1ccc(/C=C/C(=O)OCc2ccccc2C#N)cc1OC | inconclusive: 39.8 µM [inhibitor, single point]
Cc1cnc(C(=O)OCC(=O)c2ccc3ccccc3c2)cn1 | inconclusive: 39.8 µM [inhibitor, single point]
COc1ccc(Cn2c(SCc3ccc(C(=O)NCc4cccs4)cc3)nc3cccnc32)cc1 | inconclusive: 25.1 µM [inhibitor, partial curve, poor fit]
Cc1oc(-c2ccccc2)nc1C(=O)N1CCN(CC(=O)N2CCOCC2)CC1 | inactive
CCCN1CCN(CCCNC(=O)Cn2nc(CC)n3c(cc4occc43)c2=O)CC1 | inconclusive: 3.98 µM [inhibitor, full curve, poor fit]
Cc1nc(C)c(C(=O)N2CCC3(CC2)CC(N2CCCC2)CCO3)s1 (stereo not given) | inconclusive: 25.1 µM [inhibitor, single point]
COc1ccccc1-c1ccnc(-c2nnc(C)n2Cc2ccncc2)c1 | inconclusive: 28.2 µM [inhibitor, single point]
